Source: the supplement of paper PMC7125110
± gives the standard error. Variants at the floor of the assay are shown more often than the library holds them.

B1: glmS ribozyme (parent)
chain: AUAAAAGCGCCAGAACUACAGAAAUGUAGUUGACGAGGAGGAGGUUUAUCGAAUUUUCGGCGGAUGCCUCCAAA

Experiments:
Conditions in all cases: with glucosamine-6-phosphate
glucosamine-6-phosphate [1] = variants of: B1; assay: self-cleavage kobs at 640 uM GlcN6P; higher = faster cleavage; RNA array
Outline: (§1)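 Barcoded ribozyme variants on sequenced MiSeq chips were transcribed in situ by E. coli RNA polymerase and followed at 37 °C through a hybridised Cy3 probe. Glucosamine-6-phosphate at 40 μM to 10 mM in HEPES/KCl/Mg(OAc)2 buffer was flowed in, and tiles were imaged over ~14 h. Signals were normalised to baseline and to non-cleaving reference variants, and per-tile medians were fit to one- or two-exponential decays to give kobs. Weighted Michaelis–Menten fits across concentrations gave kcat and KM.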

glucosamine-6-phosphate [2] = variants of: B1; assay: self-cleavage kobs at 160 uM GlcN6P; higher = faster cleavage; RNA array
Outline: as §1

glucosamine-6-phosphate [3] = variants of: B1; assay: self-cleavage kobs at 2500 uM GlcN6P; higher = faster cleavage; RNA array
Outline: as §1

glucosamine-6-phosphate [4] = variants of: B1; assay: self-cleavage kobs at 10000 uM GlcN6P; higher = faster cleavage; RNA array
Outline: as §1

Variant | self-cleavage kobs at 640 uM GlcN6P (glucosamine-6-phosphate [1]) [s⁻¹] | self-cleavage kobs at 160 uM GlcN6P (glucosamine-6-phosphate [2]) [s⁻¹] | self-cleavage kobs at 2500 uM GlcN6P (glucosamine-6-phosphate [3]) [s⁻¹] | self-cleavage kobs at 10000 uM GlcN6P (glucosamine-6-phosphate [4]) [s⁻¹]
A33U A36U | < 1e-05 | < 1e-05 | < 1e-05 | < 1e-05
A33U C34A G40C G59C C61U C71G | < 1e-05 |  | < 1e-05 | 
A33U C50G G51A | < 1e-05 |  |  | 
A33U C50G G51U A52U | < 1e-05 |  | < 1e-05 | 
A33U C50U G62C | < 1e-05 | < 1e-05 | < 1e-05 | 
A33U C61U | < 1e-05 |  |  | 
A33U G35A A52U A53G | < 1e-05 |  | < 1e-05 | 
A33U G35U U54A | < 1e-05 |  |  | < 1e-05
A33U G37U A53G | < 1e-05 |  |  | 
A33U G44U U56G C68U | < 1e-05 | < 1e-05 |  | 
A33U U45G U47A G63U | < 1e-05 |  |  | 
A33U U54A C70A | 5.86e-05 ± 2e-05 |  |  | 
A33U U55C G59U C67A C71A | < 1e-05 |  |  | 
A33U U56G G60A | < 1e-05 |  |  | 
C34A A39G | < 1e-05 |  |  | 
C34A C67U C68A | < 1e-05 |  | < 1e-05 | 
C34A G44U C50A | < 1e-05 |  |  | 
C34A G51A A52G | < 1e-05 |  |  | 
C34A G63U A64G | < 1e-05 |  | < 1e-05 | 
C34A U46G A64G | < 1e-05 |  |  | < 1e-05
C34G A39C | < 1e-05 |  | < 1e-05 | < 1e-05
C34G G37A U45A C58A | < 1e-05 |  |  | 
C34G G41U A42U A52G A53G A64G | < 1e-05 |  | < 1e-05 | 
C34G U45G C50A C58A C71G | < 1e-05 |  |  | < 1e-05

Variant | self-cleavage kobs at 640 uM GlcN6P (glucosamine-6-phosphate [1]) [s⁻¹] | self-cleavage kobs at 160 uM GlcN6P (glucosamine-6-phosphate [2]) [s⁻¹] | self-cleavage kobs at 2500 uM GlcN6P (glucosamine-6-phosphate [3]) [s⁻¹] | self-cleavage kobs at 10000 uM GlcN6P (glucosamine-6-phosphate [4]) [s⁻¹]
C34U A36U | < 1e-05 | < 1e-05 | < 1e-05 | 
C34U C61G | < 1e-05 | < 1e-05 |  | 
C34U G40U U47A G66U | < 1e-05 |  | < 1e-05 | 
C34U U55C C67U | < 1e-05 |  |  | 
G35A A48U U69C | < 1e-05 |  | < 1e-05 | 
G35A C71A | < 1e-05 | < 1e-05 | < 1e-05 | < 1e-05
G35A G41A C50A | < 1e-05 |  |  | 
G35A G59A | < 1e-05 |  |  | < 1e-05
G35A U47G C50A U65A | < 1e-05 | < 1e-05 | < 1e-05 | 
G35A U54G | < 1e-05 | < 1e-05 | < 1e-05 | 
G35C A36U G37U G38C A42G | < 1e-05 |  |  | 
G35C A53G | < 1e-05 | < 1e-05 | < 1e-05 | < 1e-05
G35C A53U U55G | < 1e-05 | < 1e-05 | < 1e-05 | 
G35C C58G C71A | < 1e-05 | < 1e-05 | < 1e-05 | 
G35C C58U | < 1e-05 | < 1e-05 |  | 
G35C G40C | < 1e-05 | < 1e-05 | < 1e-05 | < 1e-05
G35C G51C C61U G66C | < 1e-05 |  |  | 
G35C G60U G63U G66U | < 1e-05 |  |  | 
G35C U47G | < 1e-05 | < 1e-05 |  | 
G35C U54G C61G | < 1e-05 |  | < 1e-05 | 
G35C U55A | < 1e-05 | < 1e-05 |  | 
G35U C61U | < 1e-05 | < 1e-05 | < 1e-05 | 
G35U C68U | < 1e-05 |  | < 1e-05 | 
G35U C71U | < 1e-05 | < 1e-05 | < 1e-05 | < 1e-05

Variant | self-cleavage kobs at 640 uM GlcN6P (glucosamine-6-phosphate [1]) [s⁻¹] | self-cleavage kobs at 160 uM GlcN6P (glucosamine-6-phosphate [2]) [s⁻¹] | self-cleavage kobs at 2500 uM GlcN6P (glucosamine-6-phosphate [3]) [s⁻¹] | self-cleavage kobs at 10000 uM GlcN6P (glucosamine-6-phosphate [4]) [s⁻¹]
G35U G37C G51U | < 1e-05 | < 1e-05 |  | 
G35U G41A G59A | < 1e-05 |  | < 1e-05 | 
G35U G41U G63U | < 1e-05 |  |  | 
G35U G44U C70U | < 1e-05 |  |  | 
G35U G51A C68A | < 1e-05 |  |  | 
G35U G62U G66U C68U | < 1e-05 |  |  | 
G35U U45A U57C C68A | < 1e-05 | < 1e-05 | < 1e-05 | 
G35U U45G G51A C58G | < 1e-05 |  | < 1e-05 | 
G35U U56C | < 1e-05 |  | < 1e-05 | < 1e-05
G35U U57G | < 1e-05 | < 1e-05 |  | < 1e-05
A36C A39G A48C | < 1e-05 |  | < 1e-05 | 
A36C A39G C68U | < 1e-05 | < 1e-05 |  | 
A36C A48C A53U | < 1e-05 | < 1e-05 | < 1e-05 | 
A36C A53G G66U | < 1e-05 |  | < 1e-05 | 
A36C G38A G40A G51U A64G | < 1e-05 |  | < 1e-05 | 
A36C G38U A39C | < 1e-05 |  |  | < 1e-05
A36C G41C G59U | < 1e-05 | < 1e-05 | < 1e-05 | 
A36C G63A C67U | < 1e-05 | < 1e-05 |  | 
A36C U55G | < 1e-05 |  |  | < 1e-05
A36G G38C | < 1e-05 |  | < 1e-05 | < 1e-05
A36G G41A G43C C71G | < 1e-05 |  |  | 
A36G G43C U55A G59U U65C | < 1e-05 | < 1e-05 |  | 
A36G G44U G63A | < 1e-05 |  | < 1e-05 | 
A36U A39G G43C | < 1e-05 |  |  | 

Variant | self-cleavage kobs at 640 uM GlcN6P (glucosamine-6-phosphate [1]) [s⁻¹] | self-cleavage kobs at 160 uM GlcN6P (glucosamine-6-phosphate [2]) [s⁻¹] | self-cleavage kobs at 2500 uM GlcN6P (glucosamine-6-phosphate [3]) [s⁻¹] | self-cleavage kobs at 10000 uM GlcN6P (glucosamine-6-phosphate [4]) [s⁻¹]
A36U A52U | < 1e-05 |  | < 1e-05 | 
A36U C50A G51U | < 1e-05 |  |  | 
A36U C61G C70A | 0.000101 ± 3e-05 |  |  | 
A36U G37U A48U G60A U65C C67G | < 1e-05 |  |  | 
A36U G41A U54G | < 1e-05 | < 1e-05 |  | 
A36U G44U C50A C61U | < 1e-05 |  | < 1e-05 | 
A36U U45C U56C | < 1e-05 |  | < 1e-05 | 
A36U U45G A48G | < 1e-05 |  |  | 
A36U U46A | < 1e-05 | < 1e-05 | < 1e-05 | < 1e-05
A36U U46G U49G | < 1e-05 | < 1e-05 |  | 
A36U U49G C58U | < 1e-05 | < 1e-05 | < 1e-05 | 
G37A C50A C61G | < 1e-05 | < 1e-05 |  | 
G37A U47G U55G | 0.000101 ± 1.6e-05 |  | 0.000183 ± 2.9e-05 | 0.000412 ± 6.3e-05
G37A U49C | < 1e-05 | < 1e-05 |  | 
G37C A39U G40U U49G | < 1e-05 | < 1e-05 |  | 
G37C C58A | < 1e-05 | < 1e-05 |  | < 1e-05
G37C G63U G66C | < 1e-05 |  |  | < 1e-05
G37C U49G C61G | < 1e-05 |  |  | 
G37U A42C U49C | < 1e-05 |  | < 1e-05 | 
G37U G38A G59A | < 1e-05 |  |  | 
G37U G43A C68U C71A | < 1e-05 |  | < 1e-05 | 
G37U U54A U55G C61U G62C | < 1e-05 |  |  | 
G38A A42G | < 1e-05 | < 1e-05 | < 1e-05 | < 1e-05
G38A C58U C68G | 5.5e-05 ± 2.5e-05 |  |  | 

Variant | self-cleavage kobs at 640 uM GlcN6P (glucosamine-6-phosphate [1]) [s⁻¹] | self-cleavage kobs at 160 uM GlcN6P (glucosamine-6-phosphate [2]) [s⁻¹] | self-cleavage kobs at 2500 uM GlcN6P (glucosamine-6-phosphate [3]) [s⁻¹] | self-cleavage kobs at 10000 uM GlcN6P (glucosamine-6-phosphate [4]) [s⁻¹]
G38A C67U C70U | < 1e-05 | < 1e-05 |  | 
G38A G66U | < 1e-05 |  |  | 
G38A U45G | < 1e-05 | < 1e-05 | < 1e-05 | 
G38C A48C G66U | < 1e-05 |  |  | 
G38C G62A | < 1e-05 |  |  | 
G38C U46G A64C | < 1e-05 |  |  | < 1e-05
G38C U47C | < 1e-05 | < 1e-05 | < 1e-05 | < 1e-05
G38C U55A A64C | < 1e-05 |  |  | 
G38U A42U G62U | < 1e-05 | < 1e-05 | < 1e-05 | 
A39C A52G G63A | < 1e-05 | < 1e-05 | < 1e-05 | 
A39C A53U G62A | < 1e-05 |  |  | 
A39C C58U U69G | < 1e-05 |  | < 1e-05 | 
A39C C61U | < 1e-05 | < 1e-05 | < 1e-05 | 
A39C U47A G60U G62A | < 1e-05 |  | < 1e-05 | 
A39G A53U U56G G62A | < 1e-05 |  |  | 
A39G G43A G63U | < 1e-05 |  |  | 
A39G G43C | < 1e-05 |  |  | 
A39G G44U U45A G51U | < 1e-05 | < 1e-05 | < 1e-05 | 
A39G G63C | < 1e-05 |  |  | < 1e-05
A39U A52G | 0.000134 ± 1.3e-05 | 5.2e-05 ± 1.4e-05 | 0.000345 ± 5.5e-05 | 0.00078 ± 5.8e-05
A39U C58A G59U | < 1e-05 |  | < 1e-05 | 
